Measurements taken from paper PMC12136788.
Some of the results follow.

T1: UNK ZnF1-3 (human, UniProt Q9C0B0 31-174)
T1 sequence: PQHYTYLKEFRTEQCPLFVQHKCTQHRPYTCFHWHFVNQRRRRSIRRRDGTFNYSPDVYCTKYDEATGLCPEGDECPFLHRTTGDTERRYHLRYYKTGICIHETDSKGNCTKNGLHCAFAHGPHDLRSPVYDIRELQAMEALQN

B1: 111178374_111178494_4086_3pUTR_ENSMUSG00000046785_ENSMUST00000060711|mouse|control|control (ssRNA)
RNA: GGGAGUUCUACAGUCCGACGAUCGGUCGAAUAUCAGAUAUCUAUCCUGCAUAUUGGAUAUUUACAAUUCAUAACAGUAGCAAAAUUACAGUUAUGAAAUAGCAAAGAAAUAAUUUUAUGGCUGGGGGUUACCACAACAUGAGGCAACAGAGGAUUGAGCAUCA
B2: chr16:94664741:94664742:+_ENSMUSG00000040785_ENSMUST00000117648|mus_hu|mus_mus_mus_hu_False|68_108 (ssRNA)
RNA: GGGAGUUCUACAGUCCGACGAUCUGGCAUGGAUCUUGGUAGCUGAUAUUCAGGAGAAAGGCUGGCCAAAGGUGUGUAUAUGCUGGUGUACUGGGGCAAACCUGGUAACACGUUUAUGUAUGCUGGCGGUGUCUGGGUGAUAUCCAACAGAGGAUUGAGCAUCA
B3: chrX:20248820:20248821:+_ENSMUSG00000001924_ENSMUST00000001989|mus_hu|motif|central (ssRNA)
RNA: GGGAGUUCUACAGUCCGACGAUCGGCGAAGUCCGUCACCACAAAGUCAGGUUCUGCCAGUGAGGCCACCAAGGAUUUAAAGCGGAUCUUCUUAGGUACUUUGACCUGACUGACGAUGCCUCCACGGAUGUAGUCGGAGAAGUUCAACAGAGGAUUGAGCAUCA
B4: chr17:1456404:1456405:-_ENSG00000174238_ENST00000313486|hu_mus|FALSE|FALSE (ssRNA)
RNA: GGGAGUUCUACAGUCCGACGAUCCUCGUAGGGCUCAUUCACCAGGACCUCCACACCUUCCCCACCACCAGUUUCAUUUUUACUGGCUUCAGCCACAGAAUACAGCUGCCCCACUUGAUACUCAUCUACAGACACAGGCAGGAUCAACAGAGGAUUGAGCAUCA
B5: 21313033_21314341_968_CDS_ENSG00000088930_ENST00000377191|human|control|control (ssRNA)
RNA: GGGAGUUCUACAGUCCGACGAUCCUCACGAAGAACAUUAAGCCGAAGGAAGAUAAACUCUCCUUCUGCACAAGGAAGACUAUCGGCAAGUUCAUCAUGCUUUCCCUUCUUUUCUCUUGGCAAACCUUCACAAUCUUUGACCUCCAACAGAGGAUUGAGCAUCA
B6: chr17:64801638:64801639:+_ENSG00000154229_ENST00000413366|hu_mus|hu_hu_hu_mus_False|1_1 (ssRNA)
RNA: GGGAGUUCUACAGUCCGACGAUCUAUAUAUAUAUAUACAUAUGUACACAUAUAUAGUAAAACCCUAGUUAAACGUGUAAAGUAGCCAUUCAUUUUUAAAAUUACAUCUACAUUAAAAAAUUAAUAUAUCUGAUAGAGUGCCCACAACAGAGGAUUGAGCAUCA
B7: chr10:86154994:86154995:-_ENSMUSG00000020048_ENSMUST00000020238|mus_hu|FALSE|FALSE (ssRNA)
RNA: GGGAGUUCUACAGUCCGACGAUCUGCUUUAGUGUCUGGUAAAAGAUACCCUGACCGAAGCGUUGCUGUUUCAAACAAAACCACAGCAAGAUCCAAAACUGUUUUAUCAUCUUCAUCUUCCUUAAUUCGUCGAAGCAUGUCUCUCAACAGAGGAUUGAGCAUCA
B8: chr13:31711309:31711310:-_ENSG00000120694_ENST00000320027|hu_hu|FALSE|FALSE (ssRNA)
RNA: GGGAGUUCUACAGUCCGACGAUCCAUAAAGACUACAGACUUAAGCUUUUUUUCUUUUUCCAUAUAAUACACAAAAUUUCUAAAUAUCCUUAAAAAAGAAAAUAUAAAUAGUUUCAGUAUGUUAUGUAGAGUCACAUACUAUGGCAACAGAGGAUUGAGCAUCA
B9: chr1:21069516:21069517:-_ENSG00000127483_ENST00000312239|hu_mus|FALSE|FALSE (ssRNA)
RNA: GGGAGUUCUACAGUCCGACGAUCUAAGUGCCACAAGGAAGAAUAAAUGAUAAGCAGAAACUGUAGUUCUCAAGUAAGAAGCUAGUACUAUUUUACACAACCUCACAACCCUAAACAAAUACAAACAAGAAGAGGGCUGGGUAGCAACAGAGGAUUGAGCAUCA
B10: chr5:95128998:95128999:+_ENSG00000164292_ENST00000379982|hu_hu|motif|central (ssRNA)
RNA: GGGAGUUCUACAGUCCGACGAUCCUUUUAAGACCACAGUGGUAGUUUUUUUCCAAAGAGAACUAAUAAACAUAUUAAGCGGUAUGGUAAUUUUUCUAACACCCACAUUGGUUUCGGUCAGAAGAAUUUUACUGGAACCUGGAGCAACAGAGGAUUGAGCAUCA
B11: chr6:170626544:170626545:+_ENSG00000112584_ENST00000537664|hu_mus|motif|central (ssRNA)
RNA: GGGAGUUCUACAGUCCGACGAUCUAGGCGUACAUCCAGGGUACUUGUUUCGGUGACGCUCUGCCAGCUCGUGGAUAUUGACGGUGGUACAUAUGUGUGGGCACGUACUCCCCACAAACCCCUGCAAACCUCUUACACCCAUAACAACAGAGGAUUGAGCAUCA
B12: chr10:17279496:17279497:+_ENSG00000026025_ENST00000224237|hu_hu|motif|central (ssRNA)
RNA: GGGAGUUCUACAGUCCGACGAUCUUAAUGGUAUUCAAAAUACCUUUUAAAAAGUAUUCUAGCACAAGAUUUUUCUGUAAACGGGAUUAUGUUGUAAACUUUUUUCUAAAUCUUGUAGGAGUGUCGGUUGUUAAGAACUAGAGCCAACAGAGGAUUGAGCAUCA
B13: chr3:100845581:100845582:-_ENSMUSG00000027864_ENSMUST00000102694|mus_hu|motif|central (ssRNA)
RNA: GGGAGUUCUACAGUCCGACGAUCCCUGGUGGGGUAUACUUGUUGCCCGUCUUCCCACCACAGGCCCGGGCCAAGGAAAGGCGGCUGUCAAUGCAGAAUCUAAUGUUUCUACCAUGUGCAUGGUCCCCUUGGUGGGGAAAACUCCAACAGAGGAUUGAGCAUCA
B14: chr18:43668140:43668141:-_ENSG00000152234_ENST00000398752|hu_mus|FALSE|FALSE (ssRNA)
RNA: GGGAGUUCUACAGUCCGACGAUCCAGUCUCUUCACCAGCUGAGCCACAGUGGACCGCUUCUGACCAAUCGCGACGUAGAUGCAGUACAGCUUCUUCUUCUCGUCGGUCCCAUCGUUGAAACGUUUCUGGUUGAUGAUUGUGUCCAACAGAGGAUUGAGCAUCA
B15: chr15:66793352:66793353:-_ENSG00000174444_ENST00000568588|hu_mus|FALSE|FALSE (ssRNA)
RNA: GGGAGUUCUACAGUCCGACGAUCCUUGAGGGAAGCAGCCUUCCGCCAAGUGCCAUACAGCUCAUCCAACUUCCGGAAAGCACUCUCCGUCCAGAUGCAGAAACGGCCCACAUGCCCACCAGGAGCCAGUUUCAAAAUGUUCAGCAACAGAGGAUUGAGCAUCA
B16: chr15:31385891:31385892:-_ENSMUSG00000039100_ENSMUST00000090227|mus_hu|FALSE|FALSE (ssRNA)
RNA: GGGAGUUCUACAGUCCGACGAUCUCUACAAUAGUUAUUCCUAGACCUUAGAUUAGUCAUUACAUUUUUAUUUAAGGUACUAUGUUACUUUCAUGACUACAAAAUGAGGCACUCGUACAAAACAGGAAUGAAAACAUACAUAUACAACAGAGGAUUGAGCAUCA
B17: 44626655_44626775_10377_CDS_ENSMUSG00000002028_ENSMUST00000002095|mouse|control|control (ssRNA)
RNA: GGGAGUUCUACAGUCCGACGAUCGAAGUUGGACGGCUGGGUCCCCGGAGCAGAAUCGGGAUCCCGGUCCCGCUGUGAAGUCAGGGUACCGGUUUUGCCAGCUAGGAGCUGGUUUCCUCGCUGUAGCUUAUAGUGUUCUUCGGCCAACAGAGGAUUGAGCAUCA
B18: 25565093_25565507_1963_CDS_ENSG00000170558_ENST00000399380|human|control|control (ssRNA)
RNA: GGGAGUUCUACAGUCCGACGAUCAAUAUUUGAUUUGGGAGGAUUACCCGAAUCUGUGAUUAUGAUGGGAACUUCAUAGAUACCAGCUUCAAGAAAUUUUAUCUUUAAAUUAAGCUGAGCAAAAUCACCAUUAAGCCGAGUGAUCAACAGAGGAUUGAGCAUCA
B19: chr9:14812383:14812384:-_ENSMUSG00000031934_ENSMUST00000164273|mus_mus|mus_mus_mus_hu_True|48_98 (ssRNA)
RNA: GGGAGUUCUACAGUCCGACGAUCAUAGCCCAGGUAGAUACAUGCCAACAGUAUAAUGAUGAGUGUCAGCAGGCGGCAGCUAAUGUAUUUCAUGAUUAAAUUAUUAGAAUUUUUCUUUGUCUUCAAGUACUGCUCCACAAUUGGCAACAGAGGAUUGAGCAUCA
B20: chr3:179287964:179287965:+_ENSG00000136518_ENST00000429709|hu_hu|hu_hu_hu_mus_True|1_78 (ssRNA)
RNA: GGGAGUUCUACAGUCCGACGAUCCUUGAGUGGUGAGAUGGCCUCCAUGUUCUCCCUCGGAACACGCAGGGCAUUGGUGUCUAUGUAGUAGGUGGGCCCGCCCUGCUUGCCUUUGUCACCAUCAAUCUCCAUCAUUGUGCUUCCCAACAGAGGAUUGAGCAUCA
B21: chr2:48026839:48026840:+_ENSG00000116062_ENST00000540021|hu_hu|hu_hu_hu_mus_False|8_48 (ssRNA)
RNA: GGGAGUUCUACAGUCCGACGAUCAUAGUGAGCCACUAGCGUCCUAAAUCUGGAACAGUGGCGGUCAUCCGAAAACUGGCCGAUGAAAAACUUUCCCAGUGAAGUGUCCACAAAGCAAACACCAUACGCACGAGUAUGACCAGACAACAGAGGAUUGAGCAUCA
B22: chrX:76939635:76939636:-_ENSG00000085224_ENST00000373344|hu_hu|FALSE|FALSE (ssRNA)
RNA: GGGAGUUCUACAGUCCGACGAUCUAAUUUUGUAGCAGAACUGAUUUCUGAAUUAUCUGUUGCCUGCUUUAAAAAUUUAACAUAACUGGAGUUCAUGUUGGCUGUGGUCUCAAUCAGUUUUUUUGCCUUCUUAAUCAUCUCUUUCAACAGAGGAUUGAGCAUCA

Each binder was assayed against T1, UNK ZnF1-3 (assay: nsRBNS (natural sequence RNA bind-n-seq); RBNS binding buffer (assumed for nsRBNS): 25 mM Tris pH 7.5, 150 mM KCl, 3 mM MgCl2, 0.01% Triton X-100, 500 ug/ml BSA, 20 U/ml SUPERase-In, 4 C; UNK is unkempt and MSI1 is Musashi-1; names of the RNAs are library labels; protein concentration not given here; high values mean tight binding).
Binder B1 has a binding signal of 0.728 enrichment R. Work on B2 yielded a binding signal of 1.09 enrichment R. B3 gave a binding signal of 0.984 enrichment R. For B4, the binding signal was 1.24 enrichment R. Binder B5 has a binding signal of 0.706 enrichment R. In the case of B6, the binding signal is reported as 1.92 enrichment R. For B7, the binding signal was 0.908 enrichment R. In the case of B8, the binding signal is reported as 0.693 enrichment R. B9 gave a binding signal of 1.34 enrichment R. With B10 the binding signal was 0.821 enrichment R. In the case of B11, the binding signal is reported as 0.851 enrichment R. In the case of B12, the binding signal is reported as 0.656 enrichment R. Binder B13 has a binding signal of 0.908 enrichment R. B14 gave a binding signal of 0.689 enrichment R. In the case of B15, the binding signal is reported as 1.41 enrichment R. B16 was tested, and the binding signal was 0.911 enrichment R. Binder B17 has a binding signal of 0.836 enrichment R. Binder B18 has a binding signal of 1.34 enrichment R. In the case of B19, the binding signal is reported as 3.18 enrichment R. For B20, the binding signal was 0.432 enrichment R. For B21, the binding signal was 1.16 enrichment R. Work on B22 yielded a binding signal of 0.662 enrichment R.
